Source: the supplement of paper PMC11417369
± gives the standard deviation of the averaged measurements. Some of the results follow.

Tested on: PfAP2-G AP2 domain (GST-tagged)
Assay: gcPBM binding intensity (ln(normalized median fluorescence intensity)); higher = stronger DNA binding
Outline: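 Alexa488 anti-GST antibody, scanned at 488 nm, detected GST-tagged P. falciparum DNA-binding domains that had been expressed in E. coli and incubated for 1 h on an Agilent 4 × 180k array. The array carried primer-extended double-stranded 36-bp intergenic genomic probes and negative controls. Binding intensity is the highest Masliner-normalised natural-log median intensity across replicate spots of either orientation of each probe.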

Row | Sequence | gcPBM binding intensity (ln)
1 | ATTCTATATAAATATACACACATATATAAAATACAT [CACACA_site2293] | 9.96 ± 0.071
2 | TTAATAATTAATATATGTACTGATAAATAACATATA [XGTACX_site3966] | 10.9 ± 0.64
3 | AGATAAAATATATATGCACACACATATATATTTCAT [CACACA_site9183] | 9.84 ± 0.042
4 | TCTTGTATATGTTAAAGTACACAACAATATATATAT [XGTACX_site6814] | 11.5 ± 0.99
5 | ATATTCTTGTTTAATACACACTGTAGTATTATATAT [CACACA_site4400] | 10.3 ± 0.13
6 | TAATGAGCGCTTGTAGTGCATTATATTCAAAAATAT | 10.2 ± 0.25
7 | AGAAAAAAACAACATGCACACGCACCCACAAAAAAA [CACACA_site7908] | 10.4 ± 0.33
8 | TCCCACTGTTATATTGAAAAAAAAAAAAAAAAAAAA [TGCATGCA_negctrl_site288] | 9.82 ± 0.5
9 | TGTTTGTAATTATGTATGCACTTTTTTGTATGTGTG [GTGCAC_site9668] | 10.3 ± 0.22
10 | ACATATCTATCGTTTTTAATTGTATATTATTATAAC [TGCATGCA_negctrl_site144] | 9.87 ± 0.028
11 | AAATATTTTTAAAGAAGTACTTTTTAAAAATAATCT [XGTACX_site4897] | 11.2 ± 0.69
12 | TTTTTTTTTTGATGAGCACACATGTTTTTTCTTAGA [CACACA_site3171] | 10.3 ± 0.29
13 | AAAAAATATTTATGTTCACACATTTTATATATGATA [CACACA_site4821] | 9.905 ± 0.049
14 | TAATGTTGTTTCTGAGGTACACAATTTTTTTTATTT [XGTACX_site8035] | 11.2 ± 0.83
15 | TTAATGAAATATTATACACACAAAAAAATAATTTTA [CACACA_site4231] | 9.915 ± 0.092
16 | TACACTTTTTTTTGTACACACTAAAAAGATTAACAA [CACACA_site6037] | 11.3 ± 0.82
17 | TATATATATGGACACACACACACCAAAGCGTAGCGC [CACACA_site4209] | 10.9 ± 0.69
18 | GCGTATACTTGTAACGGTACACAGGAAATTATAGAA [XGTACX_site507] | 10.9 ± 0.61
19 | TCTTTGTTTTTTTTTTTTAAACAAAATCATCAAAGG [XGTACX_negctrl_site192] | 9.88 ± 0.35
20 | AAGATACACCTTTTTAGTACTTACATTTTTTTTATT [XGTACX_site1373] | 11.4 ± 0.68
21 | AATAAATATATATACACACCCATATATATATATATA [CACACA_site2595] | 10.2 ± 0.35
22 | TATACTTGTAAATGCACACATAAGATGCGACTAATG [CACACA_site2118] | 10.15 ± 0.049
23 | AAAAAAATAAAGGATATACACACTAATTATATATAT [CACACA_site2812] | 9.83 ± 0.057
24 | ACCATACAGAATAATGCATGTTCCTTTTTATGAATA [TGCATGCA_site995] | 9.915 ± 0.021
25 | AGATTATAAAATTCTACACACATATATACCTATATA [CACACA_site5848] | 9.79 ± 0.071
